In PubChem BioAssay AID485344 (National Center for Advancing Translational Sciences (NCATS), 2010):
The whole screen tested about 340,000 compounds, of which about 6,900 (2%) were called active. No stated cut-off is given here; in the data, active means inhibition above about 30%; inactive means below that, where a call was filed. This is a selection; strong and weak results do not stand in their true shares. The source gives no active or inactive call for entries shown without one.

These molecules were tested against D(2) dopamine receptor (Homo sapiens) (UniProt P14416) (assay: HTS Assay for Allosteric Antagonists of the Human D2 Dopamine Receptor: Primary Screen for Antagonists). Conditions: HEK293 TREx D2 cells, calcium flux, dopamine EC80; at 10 µM; stronger effect = higher value.
Summary of the method: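 Cells plated overnight at 30 C with tetracycline; no-wash calcium dye, 30–90 min RT; 10 s baseline; compound pinned; 180 s read; EC80 dopamine added; another 180 s read.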
Further: 0% is about no effect.

Chain of UniProt P14416 (P14416 whole entry, looked up): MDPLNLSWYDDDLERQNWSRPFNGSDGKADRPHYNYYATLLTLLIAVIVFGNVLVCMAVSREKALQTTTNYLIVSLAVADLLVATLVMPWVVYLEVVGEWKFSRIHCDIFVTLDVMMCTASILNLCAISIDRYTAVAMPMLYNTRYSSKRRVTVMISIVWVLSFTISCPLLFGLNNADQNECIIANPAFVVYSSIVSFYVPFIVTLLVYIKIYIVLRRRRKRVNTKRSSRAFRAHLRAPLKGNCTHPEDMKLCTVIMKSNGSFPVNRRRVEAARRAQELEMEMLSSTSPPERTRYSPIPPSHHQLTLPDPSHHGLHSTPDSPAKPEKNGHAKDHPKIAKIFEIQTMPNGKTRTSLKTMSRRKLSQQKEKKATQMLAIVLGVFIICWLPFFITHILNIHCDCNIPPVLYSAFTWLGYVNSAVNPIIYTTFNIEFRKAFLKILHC

| SMILES | inhibition |
| --- | --- |
| CSc1ccc(CNC(=O)CN2C(=O)C3CCCCN3c3ccc(C(=O)N4CCCC4)cc32)cc1 (configuration not stated) | 18% |
| CCOC(=O)c1ccc2c(c1)[C@@H]1C=CC[C@@H]1[C@H](c1cccc(OC)c1OC)N2 | 2.16% |
| CCCC(=O)C1=C(c2cccc(OC)c2)N(C(=O)CCC)n2c(C)nnc2S1 | -1.25% |
| CC(=O)c1ccc(N2CCN(C(=O)c3cc4ccc5cccnc5c4[nH]3)CC2)cc1 | 1.8% |
| O=C(Nc1ccc(Cl)cc1)c1cc2nc(-c3ccc4c(c3)OCO4)cc(C(F)(F)F)n2n1 | 7.64% |
| CCn1c(=O)n(-c2cccc(Cl)c2)c(=O)c2sc3ccccc3c21 | 0.984% |
| CCc1nn(CC(=O)N2CCN(c3ccc(Cl)cc3)CC2)c(=O)c2cc3occc3n12 | 4.14% |
| O=C(c1cnc(N2CCCCC2)c2ccccc12)N1CCN(c2ccc(Cl)cc2)CC1 | 18.7% |
| COc1ccc(C(=O)Nc2ccccc2-c2nc(-c3ccc(OC)cc3)no2)cc1 | 10.6% |
| COc1ccc(OC)c(/C=C(\C#N)c2nc3ccccc3c(=O)[nH]2)c1 | -2.09% |
| O=C(CCC(=O)c1ccccc1)Nc1ccc(F)c(Cl)c1 | 0.201% |
| Cc1ccc(C)c(S(=O)(=O)NCCc2csc(-c3ccc(Cl)cc3)n2)c1 | -26.7% |
| Cc1sc2c(c1C)c(=O)n(CCc1ccccc1)c(=O)n2Cc1ccc(F)cc1 | 17.4% |
| O=S(=O)(NCCS(=O)(=O)N1CCN(c2ccccc2)CC1)c1ccc(Cl)cc1 | 5.3% |
| Cc1cccc(NC(=O)C2CCCN(S(=O)(=O)c3ccc4c(c3)oc(=O)n4C)C2)c1 (configuration not stated) | -24.9% |
| COc1ccccc1N1CCN(CCCNC(=O)c2cnn(-c3ccc(C)c(C)c3)c2C2CCN(C(=O)OC(C)(C)C)CC2)CC1 | 10.8% |
| CCCCS(=O)(=O)c1oc(-c2ccc(F)cc2)nc1S(=O)(=O)c1ccccc1 | 0.279% |
| Fc1ccc(-c2cc(C(F)(F)F)nc(NCc3ccccc3)n2)cc1 | -0.784% |
| O=C(c1ccc2c(c1)N(Cc1ccc(F)cc1)C(=O)c1ccccc1S2(=O)=O)N1CCN(c2ccccn2)CC1 | -9.67% |
| COc1ccccc1CNC(=O)c1cnc2c(-c3ccccc3)c(C)nn2c1C | -8.28% |
| Cc1ccc(-n2nc3ccc(NC(=O)Cc4ccc(Cl)cc4)cc3n2)cc1 | 1.43% |
| Cc1ccc(CNC(=O)c2ccc(N3CCC4(CC3)CC(c3ccccc3)=NO4)c([N+](=O)[O-])c2)cc1 | active: 45.2% |
| CCOC(=O)c1c(NC(=O)C(C)Sc2cn(CCNC(=O)c3ccccc3OC)c3ccccc23)sc2c1CCC2 (configuration not stated) | 4.31% |
| CCOC(=O)COc1ccc(CC)cc1C(=O)c1ccn2nc(-c3ccc(Cl)cc3)cc2n1 | -12.4% |
| COc1cccc(CNC(=O)CSC2=Nc3ccccc3C3=NC(C)C(=O)N23)c1OC (configuration not stated) | 8.28% |

| SMILES | inhibition |
| --- | --- |
| COc1ccc(-c2noc(N3CCN(c4ccc(C)cc4)C(C)C3)n2)cc1OC (configuration not stated) | -2.13% |
| CCOc1ccc(NC(=O)Cn2c(=O)n(CCCC(=O)NCc3ccc4c(c3)OCO4)c(=O)c3ccccc32)cc1 | -1.64% |
| Cc1ccc(CSc2ncc(Cl)c(C(=O)Oc3ccc(F)cc3)n2)cc1 | 6.06% |
| O=C(NCCc1ccc(Cl)cc1)c1ccc2c(c1)N(Cc1c(F)cccc1Cl)C(=O)CS2 | -3.97% |
| COC(=O)c1c(C)oc2ccc(N(C(=O)Oc3ccccc3)S(=O)(=O)c3ccc(C(C)(C)C)cc3)cc12 | 6.47% |
| Cc1c(C)n(C)c2ccc(C(=O)NCCc3ccc(Cl)cc3)cc12 | 20.3% |
| Cc1ccc(NC(=O)C2CCCN(S(=O)(=O)c3c(C)n[nH]c3C)C2)cc1Cl (configuration not stated) | -13.3% |
| CC1=C(C(=O)Nc2cc(Cl)ccc2C)C(c2ccco2)n2ncnc2N1 (configuration not stated) | 14.2% |
| O=C(CSc1nc2c([nH]c3ccccc32)c(=O)n1-c1ccc(F)cc1)NCc1ccco1 | 13.5% |
| Cc1nc2ccccc2c(=O)n1CCCO | active: 31.9% |
| CCSc1nnc2c(n1)OC(c1sccc1C)N(C(C)=O)c1ccccc1-2 (configuration not stated) | 9.95% |
| O=C(c1ccc2c3c(cccc13)CC2)C1CCCN(Cc2ccccn2)C1 (configuration not stated) | active: 36.7% |
| CCOC(=O)C1CCCN(S(=O)(=O)c2cc3c(cc2C)NC(=O)CO3)C1 (configuration not stated) | -22.6% |
| O=C(NCc1cccc(F)c1)c1ccc2nc(N3CCCCC3)sc2c1 | 0.409% |
| COc1ccc(Cn2c(=O)c3oc4ccccc4c3n(Cc3cccc(F)c3)c2=O)cc1 | 2.69% |
| Cc1ccc(OCC(=O)Nc2ccc3nc(SCC(N)=O)sc3c2)cc1 | -3.76% |
| Cc1ccc2c(c1)C1CN(C)CCC1N2S(=O)(=O)c1ccc(C#N)cc1 (configuration not stated) | active: 39.5% |
| O=C(CN1C(=O)CCc2cc(S(=O)(=O)N3CCOCC3)ccc21)NCc1ccccc1Cl | -11.6% |
| Cc1ccc(N2CC(C(=O)N3CCC(C(=O)Nc4cccc(Br)c4)CC3)CC2=O)cc1 (configuration not stated) | active: 38.7% |
| CCSc1ncc(Cl)c(C(=O)N(Cc2ccccc2)Cc2ccco2)n1 | 13.2% |
| CCCOc1ccc(NC(=O)CC2C(=O)N(c3ccc(C)cc3)C(=O)N2C2CCCC2)cc1 (configuration not stated) | 1.24% |
| Cc1nn(-c2ccc(F)cc2)c(-n2cccc2)c1C(=O)N1CCN(c2ccccc2F)CC1 | 4.85% |
| CC(=O)Nc1ccc(NS(=O)(=O)c2ccc(Cl)s2)cc1 | 4.68% |
| Cc1c(C(=O)Nc2ccc(F)c(F)c2)oc2ccc(S(=O)(=O)N3CCC4(CC3)OCCO4)cc12 | -24.8% |
| O=C(Nc1c(-c2ccc(F)cc2)nc2ccccn12)c1cccc(F)c1 | -15.2% |

| SMILES | inhibition |
| --- | --- |
| Cc1ccc(C2C=C(c3ccc(F)cc3)Nc3nc(CCCO)nn32)cc1 (configuration not stated) | -8.03% |
| CCCCc1ccc(NS(=O)(=O)c2ccc(N3CCCCS3(=O)=O)cc2)cc1 | -0.48% |
| COc1ccc(OC)c(NC(=O)c2cnc(N3CCCC3)nc2C)c1 | -3.3% |
| Cc1ccc(C(=O)N2CCc3cc(CNC(=O)CCc4ccccc4)ccc32)cc1 | -9.67% |
| Cc1cccc2cc(CN(Cc3cccs3)C3(c4nnnn4C4CCCC4)CCCC3)c(=O)[nH]c12 | active: 77.5% |
| O=C(NC1CC(=O)N(c2ccccc2)C1)c1ccco1 (configuration not stated) | 23.3% |
| COc1cccc(C(=O)NCCc2csc(-c3cccc(F)c3)n2)c1OC | 21.6% |
| COc1ccc(/C=C/C(=O)OCC(=O)c2ccc[nH]2)cc1 | active: 38.1% |
| O=C(Nc1ccc(F)cc1)Nc1ccc2snnc2c1 | -1.92% |
| CCc1cccc(NC(=O)CN(c2ccc(C)cc2)S(=O)(=O)c2cccs2)c1 | 6.52% |
| Cc1c(/C=N\NC(=O)c2cc3ccccc3o2)c2ccccc2n1C | active: 33.1% |
| COc1ccc(Cl)cc1C1CC(=O)Nc2cc3c(cc21)OCCO3 (configuration not stated) | 16.5% |
| CCCCNc1sc(S(=O)(=O)CCC)nc1S(=O)(=O)c1ccc(C)cc1 | -0.817% |
| CCOc1ccccc1NC(=O)CCc1c(C)nc2c3cccnc3nn2c1C | -6.59% |
| CCc1cccc(NC(=O)Cn2ncc3c([nH]c4ccc(C)cc43)c2=O)c1 | -4.91% |
| Cn1cc(S(=O)(=O)CC(=O)Nc2ccc(Br)cc2)c2ccccc21 | active: 39.2% |
| O=C(CCc1nnc(-c2ccc(-c3ccccc3)cc2)o1)N1CCCCC1 | active: 62.2% |
| Cc1ccc(CN2C(=O)c3ccccc3Sc3ccc(C(=O)NC4CCCC4)cc32)cc1 | -16.9% |
| CCNC(=O)c1c2c(nc3ccccc13)C(=O)N(C1CCCCC1)C2 | 4.74% |
| O=C(Cn1c(=O)n(CCCS(=O)(=O)C2CCCCC2)c(=O)c2ccccc21)Nc1ccc(F)c(Cl)c1 | -0.293% |
| COc1ccc(C)cc1NC(=O)N1CCN(c2nnc(C)c3c(C)n(-c4ccccc4)nc23)CC1 | 11% |
| COCCCNC(=O)c1nn(-c2ccc(C)cc2)c(=O)n(C)c1=O | -5.34% |
| O=C(c1cnc(N2CCCCC2)c2ccccc12)N1CCN(c2cccc(Cl)c2)CC1 | 6.35% |
| CCOc1ccc(NC(=O)CC2C(=O)N(c3ccccc3)C(=O)N2Cc2cccc(OC)c2)cc1 (configuration not stated) | 2.6% |
| O=c1c(N2CCCCC2)csc2ccc(F)cc12 | 4.06% |

| SMILES | inhibition |
| --- | --- |
| COc1ccc(-c2nc3ccccc3s2)cc1NC(=O)COc1cccc(C)c1 | 1.52% |
| CCc1nc2ccc(C(=O)NCc3cccc(Br)c3)cc2nc1CC | 7.41% |
| CCOc1ccc(NC(=O)C(=O)NCCc2ccccc2)cc1 | 3.67% |
| CCc1ccc(S(=O)(=O)Nc2cc3c(cc2N2CCOCC2)n(C)c(=O)c(=O)n3C)cc1 | 10.8% |
| CCOc1ccc2nc(NC(=O)c3ccccc3)sc2c1 | 0.982% |
| O=C(Cn1ncc2c3ccccc3n(Cc3ccccc3F)c2c1=O)NCCCc1ccccc1 | -0.487% |
| COC(=O)c1ccccc1NC(=O)CSc1nc2nc(C)cc(C)n2n1 | -6.96% |
| CCSc1nc2ccccc2n1CCC(=O)O | active: 44.7% |
| CCOc1ccccc1C(=O)N(Cc1ccco1)Cc1ccccc1F | 4.9% |
| Cc1ccc(C(=O)Nc2ccc(Br)cc2)cc1S(=O)(=O)NCc1ccccc1 | -3.62% |
| Cc1ccc(-n2c(SCC(=O)Nc3ccc4c(c3)OCCO4)nc3c([nH]c4ccccc43)c2=O)cc1 | -0.285% |
| Cc1cccc(NS(=O)(=O)c2nnc(NC(=O)c3cccc(C)c3)s2)c1 | 0.707% |
| COCCNC(=O)c1ccc(-c2nc(CN3CCc4ccccc43)c(C)o2)cc1 | 8.49% |
| CCCCNC(=O)Cn1cnc2sc(C)c(S(=O)(=O)N3CCN(c4ccccc4OC)CC3)c2c1=O | -5.38% |
| COc1ccccc1NC(=O)c1ncoc1-c1ccco1 | 5.9% |
| CC(C)OCCCNC(=O)CN1C(=O)COc2ccc(S(=O)(=O)N3CCOCC3)cc21 | -7.34% |
| Cc1csc2nc(COC(=O)c3ccc(NC(=O)C(C)C)cc3)cc(=O)n12 | -10.3% |
| CN(C(=O)CN1C(=O)C2C3CC(C(Br)C3Br)C2C1=O)C1CCCCC1 (configuration not stated) | active: 30.8% |
| CCn1c(=O)c2sccc2n2c(CCC(=O)NCc3ccc(Cl)cc3)nnc12 | -1.25% |
| N#Cc1ccc(CSc2nnc(-c3ccc(Br)cc3)o2)cc1 | -3.95% |
| CCS(=O)(=O)c1ccccc1C(=O)N1CCN(c2nc3ccccc3s2)CC1 | -24.4% |
| COc1ccc(CNC(=O)CCCN2C(=O)c3cccnc3Oc3ccc(Cl)cc32)cc1 | 10% |
